Assay results as given in patent publication US9274101B2 (BIOLOG, Inc., priority 2001, dated 2016).

Tested on: E. coli 287 (ATCC #11775)
Assay: Carbon source utilization in GN / SF-N MICROPLATE with redox purple, tetrazolium violet or resazurin
[1] = redox purple, 0.85% NaCl suspension
[2] = the remaining results (all indicator/suspension combinations except redox purple in 0.85% NaCl)
[3] = resazurin, 0.2% carrageenan suspension
[4] = resazurin, 0.85% NaCl suspension
[5] = tetrazolium violet and resazurin, both suspensions
[6] = tetrazolium violet, 0.2% carrageenan suspension
[7] = tetrazolium violet, 0.85% NaCl suspension

For `OC[C@H]1O[C@@H](O[C@@H]2[C@@H](CO)OC(O)(CO)[C@H]2O)[C@H](O)[C@@H](O)[C@H]1O` (mixture of isomers) [Lactulose], the “carbon source utilization result” value [1] was “negative” and the “carbon source utilization result” value [2] was “positive”.
In the case of `CC(O)C(C)O` (stereo not shown) [2,3-butanediol], the “carbon source utilization result” value [3] is reported as “positive/negative” and the “carbon source utilization result” value [4] is reported as “negative”.
`NCCO` [2-amino ethanol] was tested, and the “carbon source utilization result” value [3] was “positive/negative” and the “carbon source utilization result” value [4] was “negative”.
With `O=C(CO)[C@H](O)[C@H](O)[C@H](O)CO` [D-psicose] the “carbon source utilization result” value (redox purple, […]) was “negative” and the “carbon source utilization result” value [5] was “positive”.
In the case of `OC[C@H]1O[C@H](OC[C@H]2O[C@H](O[C@]3(CO)O[C@H](CO)[C@@H](O)[C@@H]3O)[C@H](O)[C@@H](O)[C@@H]2O)[C@H](O)[C@@H](O)[C@H]1O` [D-raffinose], the “carbon source utilization result” value [1] is reported as “negative” and the “carbon source utilization result” value [2] is reported as “positive”.
In the case of `O=C(O)[C@@H](O)[C@@H](O)[C@H](O)[C@@H](O)C(=O)O` [D-saccharic acid], the “carbon source utilization result” value (redox purple, […]) is reported as “negative”, the “carbon source utilization result” value [3] is reported as “positive” and the “carbon source utilization result” value [4] is reported as “negative”. The “carbon source utilization result” value [6] was “negative” and the “carbon source utilization result” value [7] was “equivocal (±)”.
In the case of `NC(=O)[C@@H](O)[C@@H](O)[C@H](O)[C@@H](O)C=O` [Glucuronamide], the “carbon source utilization result” value (redox purple, […]) is reported as “negative” and the “carbon source utilization result” value [5] is reported as “positive”.
For `N[C@@H](CCC(=O)O)C(=O)O` [L-glutamic acid], the “carbon source utilization result” value [1] was “negative”.
For `NCCC[C@H](N)C(=O)O` [L-ornithine], the “carbon source utilization result” value [3] was “positive” and the “carbon source utilization result” value [4] was “negative”.
In the case of `N[C@@H](Cc1ccccc1)C(=O)O` [L-phenylalanine], the “carbon source utilization result” value [3] is reported as “positive/negative” and the “carbon source utilization result” value [4] is reported as “negative”.
For `O=C1CC[C@@H](C(=O)O)N1` [L-pyroglutamic acid], the “carbon source utilization result” value [3] was “positive/negative” and the “carbon source utilization result” value [4] was “negative”.
`C[C@@H](O)[C@H](N)C(=O)O` [L-threonine] was tested, and the “carbon source utilization result” value (redox purple, 0.2% carrageenan suspension) was “equivocal (±)”, the “carbon source utilization result” value [1] was “negative” and the “carbon source utilization result” value [3] was “positive”. For the same compound, the “carbon source utilization result” value [4] was “positive”, the “carbon source utilization result” value [6] was “equivocal (±)” and the “carbon source utilization result” value [7] was “positive”.
In the case of `O[C@H]1[C@H](O)[C@@H](O)[C@H](O)[C@@H](O)[C@H]1O` [M-inositol], the “carbon source utilization result” value [3] is reported as “positive/negative” and the “carbon source utilization result” value [4] is reported as “negative”.
With `NCCc1ccccc1` [Phenylethyl amine] the “carbon source utilization result” value [3] was “positive/negative” and the “carbon source utilization result” value [4] was “negative”.
`OC[C@H]1O[C@@](CO)(O[C@H]2O[C@H](CO)[C@@H](O)[C@H](O)[C@H]2O)[C@@H](O)[C@@H]1O` [Sucrose] was tested, and the “carbon source utilization result” value [3] was “positive” and the “carbon source utilization result” value [4] was “negative”.
For `NC(=O)CCC(=O)O` [succinamic acid], the “carbon source utilization result” value (redox purple, […]) was “negative” and the “carbon source utilization result” value [5] was “positive”.
For `O=C(CO)[C@@H](O[C@H]1O[C@H](CO)[C@@H](O)[C@H](O)[C@H]1O)[C@H](O)[C@H](O)CO` [turanose], the “carbon source utilization result” value (redox purple, […]) was “negative”, the “carbon source utilization result” value [3] was “positive” and the “carbon source utilization result” value [4] was “equivocal (±)”. The “carbon source utilization result” value (tetrazolium violet, both suspensions) was “equivocal (±)”.
`CCC(O)C(=O)O` (stereo not drawn) [α-hydroxy butyric acid] was tested, and the “carbon source utilization result” value [1] was “negative” and the “carbon source utilization result” value [2] was “positive”.
In the case of glycogen, the “carbon source utilization result” value (redox purple, […]) is reported as “negative” and the “carbon source utilization result” value [5] is reported as “positive”.
